These are yes or no findings as the source states them, for the method shown. Binding seen in cells or lysates may run through a third protein. Some entries that bind do so weakly or less than the wild type. Blank lines part the entries; values can stand above or below the molecule they belong to.
Legend:
[1] = molecular target: T1, NRAC 1–112 + SP (mouse NRAC lacking tm1, with the signal peptide and transmembrane domain of CD36) (mouse | not stated) (UniProt Q8BNX7); assay: co-IP; HEK293T cells co-transfected with NRAC constructs and CD36-mCherry; IP with the NRAC antibody, western blotting
T1 sequence: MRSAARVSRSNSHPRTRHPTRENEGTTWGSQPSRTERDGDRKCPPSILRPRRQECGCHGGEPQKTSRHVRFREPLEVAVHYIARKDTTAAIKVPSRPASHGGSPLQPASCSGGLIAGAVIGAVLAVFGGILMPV

Chains of the proteins cited; added tags and fusions are not shown.
UniProt Q08857: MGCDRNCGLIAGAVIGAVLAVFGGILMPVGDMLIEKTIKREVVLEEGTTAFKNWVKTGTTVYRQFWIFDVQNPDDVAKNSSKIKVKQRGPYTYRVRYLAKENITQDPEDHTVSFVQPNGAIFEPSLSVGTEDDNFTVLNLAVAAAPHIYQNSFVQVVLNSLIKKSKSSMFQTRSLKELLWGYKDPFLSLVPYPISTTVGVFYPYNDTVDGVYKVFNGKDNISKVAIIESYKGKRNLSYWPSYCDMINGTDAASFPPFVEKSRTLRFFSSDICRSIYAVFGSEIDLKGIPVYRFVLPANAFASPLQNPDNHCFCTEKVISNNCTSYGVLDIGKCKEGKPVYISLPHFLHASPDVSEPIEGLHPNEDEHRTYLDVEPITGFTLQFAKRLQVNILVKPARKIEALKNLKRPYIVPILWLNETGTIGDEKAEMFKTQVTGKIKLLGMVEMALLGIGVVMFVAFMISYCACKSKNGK
UniProt Q07969: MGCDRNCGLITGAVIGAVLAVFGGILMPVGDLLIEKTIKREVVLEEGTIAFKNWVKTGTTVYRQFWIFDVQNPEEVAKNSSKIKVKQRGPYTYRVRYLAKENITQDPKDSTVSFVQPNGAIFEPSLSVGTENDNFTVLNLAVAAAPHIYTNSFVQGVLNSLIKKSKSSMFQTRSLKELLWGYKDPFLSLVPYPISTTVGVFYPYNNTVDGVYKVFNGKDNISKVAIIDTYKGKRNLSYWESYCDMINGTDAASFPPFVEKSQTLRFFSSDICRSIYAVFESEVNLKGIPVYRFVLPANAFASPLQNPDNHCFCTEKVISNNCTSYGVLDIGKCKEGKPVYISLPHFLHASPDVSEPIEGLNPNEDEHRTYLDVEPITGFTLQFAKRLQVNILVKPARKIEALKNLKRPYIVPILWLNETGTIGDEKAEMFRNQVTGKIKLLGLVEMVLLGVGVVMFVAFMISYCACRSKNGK

[2] = molecular target: T2, NRAC 1–144 (mouse NRAC, id1, tm1 and el) (mouse) (UniProt Q8BNX7); assay: as above
T2 sequence: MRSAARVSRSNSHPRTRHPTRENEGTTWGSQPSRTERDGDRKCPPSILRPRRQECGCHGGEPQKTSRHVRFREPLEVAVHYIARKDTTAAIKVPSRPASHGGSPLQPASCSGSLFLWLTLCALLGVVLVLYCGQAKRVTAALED

[3] = molecular target: T3, NRAC (1–165), full-length mouse NRAC expressed in HEK293T (mouse) (UniProt Q8BNX7); assay: as above
T3 sequence: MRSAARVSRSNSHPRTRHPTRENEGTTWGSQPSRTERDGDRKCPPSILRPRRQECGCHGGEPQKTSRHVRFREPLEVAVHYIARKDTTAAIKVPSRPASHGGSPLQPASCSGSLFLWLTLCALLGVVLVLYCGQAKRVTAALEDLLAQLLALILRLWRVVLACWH

[4] = molecular target: T4, NRAC 1–135 (mouse NRAC, id1 and tm1) (mouse) (UniProt Q8BNX7); assay: as above
T4 sequence: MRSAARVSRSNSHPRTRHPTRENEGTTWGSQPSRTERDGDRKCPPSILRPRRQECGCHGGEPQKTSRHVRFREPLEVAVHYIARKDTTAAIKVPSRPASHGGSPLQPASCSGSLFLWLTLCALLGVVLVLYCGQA

[5] = molecular target: T5, Nutritionally regulated adipose and cardiac enriched protein (NRAC), endogenous mouse (mouse (endogenous in mouse adipose tissue)) (UniProt Q8BNX7); assay: co-IP; NRAC immunoprecipitated from BAT, SCF and PGF lysates, western blotting for CD36 and caveolin-1; IP lysis buffer with 1% Triton X-100, 4 °C
T5 sequence: T3 sequence

[6] = molecular target: CD36, endogenous mouse (mouse (endogenous in mouse adipose tissue and adipocytes)) (UniProt Q08857); assay: co-IP; CD36 immunoprecipitated from lysates of wt differentiated adipocytes and of PGF, SCF and BAT of wt male mice, western blotting for caveolin-1

- binding [1]: no binding
- binding [2]: binds
- binding [3]: binds
- binding [4]: binds
Molecule: CD36-mCherry (from UniProt Q07969 1-472) (receptor)

- binding [5]: binds
Molecule: CD36, endogenous mouse (from UniProt Q08857 1-472) (receptor)

- binding [5]: binds
- binding [6]: binds
B1: caveolin-1, endogenous mouse (protein, UniProt P49817 1-178)
chain: MSGGKYVDSEGHLYTVPIREQGNIYKPNNKAMADEVTEKQVYDAHTKEIDLVNRDPKHLNDDVVKIDFEDVIAEPEGTHSFDGIWKASFTTFTVTKYWFYRLLSTIFGIPMALIWGIYFAILSFLHIWAVVPCIKSFLIEIQCISRVYSIYVHTFCDPLFEAIGKIFSNIRISTQKEI
